Experimental data reported in patent US11618753B2 (priority 2018, dated 2023).

What follows are compounds tested on MLKL phosphorylation, HT29-L23 human colorectal adenocarcinoma cells (assay: cells). Conditions: read-out: pMLKL HCS Cell Assay (IC50, uM).

In order of falling IC50:
1. COc1ncc(-c2cc(C(F)(F)F)c3c(N)ncnn23)cc1C(=O)N1CCCC(O)(C(O)c2ccc(F)cc2)C1 (stereo not shown) [Example 1747, (5-(4-amino-5-(trifluoromethyl)pyrrolo[2,1-f][1,2,4]triazin-7-yl)-2-methoxypyridin-3-yl)(3-((4-fluorophenyl)(hydroxy)methyl)-3-hydroxypiperidin-1-yl)methanone]  0.274 µM
2. Cc1ncc(-c2cc(C(F)(F)F)c3c(N)ncnn23)cc1C(=O)NCCC(O)(C(F)(F)F)C(F)(F)F [Example 1783, 5-(4-amino-5-(trifluoromethyl)pyrrolo[2,1-f][1,2,4]triazin-7-yl)-2-methyl-N-(4,4,4-trifluoro-3-hydroxy-3-(trifluoromethyl)butyl)nicotinamide]  0.169 µM
3. Cc1cc(F)c(-c2cc(C(F)(F)F)c3c(N)ncnn23)cc1C(=O)N[C@@H]1CN(C(=O)c2cccnn2)C[C@@H]1F [Example 865, 5-[4-amino-5-(trifluoromethyl)pyrrolo[2,1-f][1,2,4]triazin-7-yl]-4-fluoro-N-[(3R,4S)-4-fluoro-1-(pyridazine-3-carbonyl)pyrrolidin-3-yl]-2-methylbenzamide]  0.146 µM
4. COc1ncc(-c2c(F)cc3c(N)ncnn23)cc1C(=O)N[C@@H]1CN(C(=O)C2CC(F)(F)C2)C[C@@H]1F [Example 508, 5-{4-amino-6-fluoropyrrolo[2,1-f][1,2,4]triazin-7-yl}-N-[(3R,4S)-1-(3,3-difluorocyclobutanecarbonyl)-4-fluoropyrrolidin-3-yl]-2-methoxypyridine-3-carboxamide]  0.11 µM
5. Nc1ncnn2c(-c3ccc(Cl)c(C(=O)N[C@@H]4CN(C(=O)c5ccc(F)cn5)C[C@@H]4F)c3)cc(C(F)(F)F)c12 [Example 958, 5-[4-amino-5-(trifluoromethyl)pyrrolo[2,1-f][1,2,4]triazin-7-yl]-2-chloro-N-[(3R,4S)-4-fluoro-1-(5-fluoropyridine-2-carbonyl)pyrrolidin-3-yl]benzamide]  0.078 µM
6. COc1ncc(-c2cc(C(F)(F)F)c3c(N)ncnn23)cc1C(=O)N1CCCC(Cc2ccc(C)cc2)C1 (stereo not shown) [Example 130, 7-(6-methoxy-5-{3-[(4-methylphenyl)methyl]piperidine-1-carbonyl}pyridin-3-yl)-5-(trifluoromethyl)pyrrolo[2,1-f][1,2,4]triazin-4-amine]  0.078 µM
7. CC(CC(=O)N1C[C@H](F)[C@H](NC(=O)c2c(F)ccc(-c3cc(C(F)(F)F)c4c(N)ncnn34)c2F)C1)C(F)(F)F (stereo partly drawn) [Example 728, 3-[4-amino-5-(trifluoromethyl)pyrrolo[2,1-f][1,2,4]triazin-7-yl]-2,6-difluoro-N-[(3R,4S)-4-fluoro-1-(4,4,4-trifluoro-3-methylbutanoyl)pyrrolidin-3-yl]benzamide]  0.059 µM
8. Nc1ncnn2c(-c3cccc(C(=O)N[C@@H]4CN(C(=O)C5CC(F)(F)C5)C[C@@H]4F)c3)cc(C(F)(F)F)c12 [Example 108, 3-[4-amino-5-(trifluoromethyl)pyrrolo[2,1-f][1,2,4]triazin-7-yl]-N-[(3R,4S)-1-(3,3-difluorocyclobutanecarbonyl)-4-fluoropyrrolidin-3-yl]benzamide]  0.053 µM
9. COc1cc(C(=O)N[C@@H]2CN(C(=O)C3CCC(F)(F)CC3)C[C@@H]2F)cc(-c2cc(C(F)(F)F)c3c(N)ncnn23)c1 [Example 580, 3-[4-amino-5-(trifluoromethyl)pyrrolo[2,1-f][1,2,4]triazin-7-yl]-N-[(3R,4S)-1-(4,4-difluorocyclohexanecarbonyl)-4-fluoropyrrolidin-3-yl]-5-methoxybenzamide]  0.041 µM
10. COc1ncc(-c2cc(C(F)(F)F)c3c(N)ncnn23)cc1C(=O)N[C@@H]1CN(C(C)(C)C(C)(C)O)C[C@@H]1F [Example 1405, 5-(4-Amino-5-(trifluoromethyl)pyrrolo[2,1-f][1,2,4]triazin-7-yl)-N-((3R,4S)-4-fluoro-1-(3-hydroxy-2,3-dimethylbutan-2-yl)pyrrolidin-3-yl)-2-methoxynicotinamide]  0.038 µM
11. Cc1cc(-c2cc(C(F)(F)F)c3c(N)ncnn23)cc(C(=O)N[C@@H]2CN(C(=O)C(C)(C)O)C[C@@H]2F)c1Cl [Example 707, 5-[4-amino-5-(trifluoromethyl)pyrrolo[2,1-f][1,2,4]triazin-7-yl]-2-chloro-N-[(3R,4S)-4-fluoro-1-(2-hydroxy-2-methylpropanoyl)pyrrolidin-3-yl]-3-methylbenzamide]  0.036 µM
12. Cc1ncc(-c2cc(C(F)(F)F)c3c(N)ncnn23)cc1C(=O)N[C@@H]1CN(C(=O)C2(F)CC2)C[C@@H]1F [Example 369, 5-[4-amino-5-(trifluoromethyl)pyrrolo [2,1-f][1,2,4]triazin-7-yl]-N-[(3R,4S)-4-fluoro-1-(1-fluorocyclopropane-carbonyl)pyrrolidin-3-yl]-2-methyl-pyridine-3-carboxamide]  0.017 µM
13. Cc1nc(C)c(-c2cc(C(F)(F)F)c3c(N)ncnn23)cc1C(=O)N[C@@H]1CN(C(=O)CC(C)C(F)(F)F)C[C@@H]1F (stereo partly drawn) [Example 1187, 5-[4-amino-5-(trifluoromethyl)pyrrolo[2,1-f][1,2,4]triazin-7-yl]-N-[(3R,4S)-4-fluoro-1-(4,4,4-trifluoro-3-methylbutanoyl)pyrrolidin-3-yl]-2,6-dimethylpyridine-3-carboxamide]  0.013 µM
14. CCC(O)(C(=O)N1C[C@H](F)[C@H](NC(=O)c2cc(-c3cc(C(F)(F)F)c4c(N)ncnn34)ccc2OC)C1)C(F)(F)F (stereo partly drawn) [Example 1122, 5-[4-amino-5-(trifluoromethyl)pyrrolo[2,1-f][1,2,4]triazin-7-yl]-N-[(3R,4S)-4-fluoro-1-[2-hydroxy-2-(trifluoromethyl)butanoyl]pyrrolidin-3-yl]-2-methoxybenzamide]  0.0086 µM
15. CCC(O)(C(=O)N1C[C@H](F)[C@H](NC(=O)c2cc(OC)cc(-c3cc(C(F)(F)F)c4c(N)ncnn34)c2)C1)C(F)(F)F (stereo partly drawn) [Example 582, 3-[4-amino-5-(trifluoromethyl)pyrrolo[2,1-f][1,2,4]triazin-7-yl]-N-[(3R,4S)-4-fluoro-1-[2-hydroxy-2-(trifluoromethyl)butanoyl]pyrrolidin-3-yl]-5-methoxybenzamide]  0.0054 µM
16. COc1ncc(-c2cc(C(F)(F)F)c3c(N)ncnn23)cc1C(=O)NCCC(O)c1ccc(F)cc1 (stereo not shown) [Example 125, 5-[4-amino-5-(trifluoromethyl)pyrrolo[2,1-f][1,2,4]triazin-7-yl]-N-[3-(4-fluorophenyl)-3-hydroxypropyl]-2-methoxypyridine-3-carboxamide]  0.005 µM
17. Nc1ncnn2c(-c3ccc(CF)c(C(=O)N[C@@H]4CN(C(=O)C5CCC(F)(F)CC5)C[C@@H]4F)c3)cc(C(F)(F)F)c12 [Example 918, 5-[4-amino-5-(trifluoromethyl)pyrrolo[2,1-f][1,2,4]triazin-7-yl]-N-[(3R,4S)-1-(4,4-difluorocyclohexanecarbonyl)-4-fluoropyrrolidin-3-yl]-2-(fluoromethyl)benzamide]  0.0046 µM
18. Cc1ncc(-c2cc(C(F)(F)F)c3c(N)ncnn23)cc1C(=O)N[C@@H]1CN(C(=O)CC(O)(C(F)(F)F)C(F)(F)F)C[C@@H]1F [Example 1236, 5-[4-amino-5-(trifluoromethyl)pyrrolo[2,1-f][1,2,4]triazin-7-yl]-N-[(3R,4S)-4-fluoro-1-[4,4,4-trifluoro-3-hydroxy-3-(trifluoromethyl)butanoyl]pyrrolidin-3-yl]-2-methylpyridine-3-carboxamide]  0.0032 µM
19. Nc1ncnn2c(-c3cc(F)c(Cl)c(C(=O)N[C@@H]4CN(C(=O)c5ccccc5F)C[C@@H]4F)c3)cc(C(F)(F)F)c12 [Example 642, 5-[4-amino-5-(trifluoromethyl)pyrrolo[2,1-f][1,2,4]triazin-7-yl]-2-chloro-3-fluoro-N-[(3R,4S)-4-fluoro-1-(2-fluorobenzoyl)pyrrolidin-3-yl]benzamide]  0.0031 µM
20. Nc1ncnn2c(-c3ccc(CF)c(C(=O)N[C@@H]4CN(C(=O)CC(O)(C(F)(F)F)C(F)(F)F)C[C@@H]4F)c3)cc(C(F)(F)F)c12 [Example 912, 5-[4-amino-5-(trifluoromethyl)pyrrolo[2,1-f][1,2,4]triazin-7-yl]-N-[(3R,4S)-4-fluoro-1-[4,4,4-trifluoro-3-hydroxy-3-(trifluoromethyl)butanoyl]pyrrolidin-3-yl]-2-(fluoromethyl)benzamide]  0.0023 µM
21. COc1ncc(-c2cc(CN3CCC(F)(F)CC3)c3c(N)ncnn23)cc1C(=O)N[C@@H]1CN(C(=O)C2CCC(F)(F)C2)C[C@@H]1F (stereo partly drawn) [Example 1623, 5-{4-amino-5-[(4,4-difluoropiperidin-1-yl)methyl]pyrrolo[2,1-f][1,2,4]triazin-7-yl}-N-[(3R,4S)-1-(3,3-difluorocyclopentanecarbonyl)-4-fluoropyrrolidin-3-yl]-2-methoxypyridine-3-carboxamide]  0.0023 µM
22. Nc1ncnn2c(-c3cnc(C(F)(F)F)c(C(=O)Nc4cnn(Cc5ccccc5)c4)c3)cc(C(F)(F)F)c12 [Example 184, 5-[4-amino-5-(trifluoromethyl)pyrrolo[2,1-f][1,2,4]triazin-7-yl]-N-(1-benzyl-1H-pyrazol-4-yl)-2-(trifluoromethyl)pyridine-3-carboxamide]  0.0018 µM
23. CCCOC(=O)N1C[C@H](F)[C@H](NC(=O)c2cc(-c3cc(CN4CCC(F)(F)CC4)c4c(N)ncnn34)cnc2OC)C1 [Example 1535, propyl (3R,4S)-3-(5-{4-amino-5-[(4,4-difluoropiperidin-1-yl)methyl]pyrrolo[2,1-f][1,2,4]triazin-7-yl}-2-methoxypyridine-3-amido)-4-fluoropyrrolidine-1-carboxylate]  0.0015 µM
24. COc1ncc(-c2cc(CN3CCC3)c3c(N)ncnn23)cc1C(=O)N[C@@H]1CN(C(=O)OCC(F)(F)F)C[C@@H]1F [Example 1555, 2,2,2-trifluoroethyl (3R,4S)-3-(5-{4-amino-5-[(azetidin-1-yl)methyl]pyrrolo[2,1-f][1,2,4]triazin-7-yl}-2-methoxypyridine-3-amido)-4-fluoropyrrolidine-1-carboxylate]  0.0015 µM
25. COc1ncc(-c2cc(CN3CCCC3)c3c(N)ncnn23)cc1C(=O)N[C@@H]1CN(C(=O)[C@@](C)(O)C(F)(F)F)C[C@@H]1F [Example 1588, 5-{4-amino-5-[(pyrrolidin-1-yl)methyl]pyrrolo[2,1-f][1,2,4]triazin-7-yl}-N-[(3R,4S)-4-fluoro-1-[(2R)-3,3,3-trifluoro-2-hydroxy-2-methylpropanoyl]pyrrolidin-3-yl]-2-methoxypyridine-3-carboxamide]  0.0011 µM
